Results taken from the supplement of paper PMC12217912.
Some of the results follow. Sequences were assembled here from the parent chain. Inactive controls read about 0.05.

B1: TEV protease; numbered along this chain (parent)
chain: MGESLFKGPRDYNPISSSICHLTNESDGHTTSLYGIGFGPFIITNKHLFRRNNGTLVVQSLHGVFKVKDTTTLQQHLVDGRDMIIIRMPKDFPPFPQKLKFREPQREERICLVTTNFQTKSMSSMVSDTSCTFPSGDGIFWKHWIQTKDGQCGSPLVSTRDGFIVGIHSASNFTNTNNYFTSVPKNFMELLTNQEAQQWVSGWRLNADSVLWGGHKVFMVKPEEPFQPVKEATQL

Variants of: B1
Assay: raw area under fraction-flipped curve 0-4 h after induction (AUC4h, not background-subtracted), DNA-recorder readout of cleavage of the substrate (dimensionless); higher = more cleavage of the substrate by the protease variant
Conditions: temperature: 34 °C; time window: 0-4 h after rhamnose induction
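Also: Bxb1 expression induced with 0.2% (w/v) L-rhamnose at OD600 near 0.5, cultures sampled hourly, flipped fraction per protease–substrate barcode pair counted by paired-end Illumina sequencing.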

Row | Variant | area with substrate ENLYCQS | area with substrate ENLYDQS | area with substrate ENLYGQS | area with substrate ENLYHQS | area with substrate ENLYKQS | area with substrate ENLYLQS | area with substrate ENLYMQS | area with substrate ENLYNQS | area with substrate ENLYQQS | area with substrate ENLYTQS | area with substrate ENLYVQS | area with substrate ENLYWQS | area with substrate ENLYYQS | area with substrate ENLYEQS | area with substrate ENLYPQS | area with substrate ENLYSQS | area with substrate ENLYIQS | area with substrate ENLYRQS
1 | H76L | 0.0705 | 0.0681 | 0.0556 | 0.041 | 0.0623 | 0.103 | 0.0932 | 0.0706 | 0.0676 | 0.0844 | 0.138 | 0.0823 | 0.077 | – | – | – | – | –
2 | Y179S | 0.0587 | 0.0886 | – | – | 0.052 | 0.0583 | – | 0.056 | 0.0692 | – | 0.0505 | 0.0469 | 0.0447 | 0.0578 | 0.107 | 0.0666 | – | –
3 | L33H | 0.0292 | 0.0599 | 0.0648 | 0.066 | 0.0552 | – | 0.0577 | 0.0554 | 0.0341 | 0.0352 | 0.0647 | 0.0722 | 0.0691 | 0.072 | 0.0584 | 0.0645 | 0.0649 | 0.0644
4 | V183P | 0.0754 | 0.059 | 0.0689 | 0.0608 | 0.0581 | 0.0537 | 0.0758 | 0.0593 | 0.0597 | 0.0686 | 0.102 | 0.0705 | 0.0438 | 0.0594 | 0.0562 | 0.0895 | 0.1 | 0.0579
5 | V183A | 0.0726 | 0.049 | 0.0604 | 0.0704 | 0.0578 | – | 0.0734 | 0.0545 | 0.0848 | 0.0472 | 0.0858 | 0.078 | 0.0715 | 0.0828 | 0.0559 | – | 0.1 | 0.0568
6 | V57N | 0.0736 | 0.0684 | – | 0.0673 | 0.052 | – | 0.107 | 0.0742 | – | – | – | – | – | 0.0636 | 0.0906 | 0.0777 | – | 0.0654
7 | V57S | 0.0963 | 0.068 | 0.0673 | 0.0704 | – | – | – | 0.101 | 0.059 | – | 0.178 | 0.128 | 0.0709 | 0.0646 | 0.0789 | 0.098 | 0.13 | 0.0667
8 | K230S | 0.0983 | 0.0543 | 0.0695 | 0.0679 | 0.066 | 0.0768 | 0.0915 | 0.0601 | 0.0619 | 0.0735 | 0.0839 | 0.0976 | – | 0.0555 | 0.0776 | 0.0608 | 0.124 | 0.0744
9 | F95A | 0.0875 | 0.0551 | – | 0.0695 | 0.0641 | 0.0626 | 0.0573 | – | – | 0.0604 | – | – | 0.0743 | 0.0602 | 0.0647 | 0.0701 | 0.0994 | 0.0492
10 | R106E | 0.0847 | 0.0728 | 0.0712 | 0.0769 | – | – | 0.082 | 0.0743 | 0.0651 | 0.0538 | 0.114 | 0.084 | 0.0646 | – | 0.076 | 0.103 | – | 0.046
11 | R204V | 0.112 | 0.0793 | 0.0626 | 0.0708 | 0.0481 | 0.0738 | 0.0915 | 0.0657 | 0.0541 | 0.0776 | 0.157 | 0.0959 | 0.0778 | 0.0555 | 0.0983 | 0.0845 | – | 0.0493
12 | T55C | 0.0864 | 0.0654 | 0.0706 | 0.0789 | 0.0619 | – | 0.0871 | 0.0718 | – | 0.0673 | 0.108 | – | 0.0583 | 0.0603 | 0.0811 | 0.118 | 0.119 | –
